# This is one part of the list.
# System: PfSIP2 AP2 domain 1 (GST-tagged)
# Assay: gcPBM binding intensity (ln(normalized median fluorescence intensity)); higher = stronger DNA binding
# Outline: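 The highest Masliner-normalised natural-log median intensity across replicate spots of either probe orientation is reported as binding intensity. GST-tagged P. falciparum DNA-binding domains expressed in E. coli were applied for 1 h to an Agilent 4 × 180k array of primer-extended double-stranded 36-bp intergenic genomic probes plus negative controls, and bound protein was detected with Alexa488 anti-GST antibody and scanned at 488 nm.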
row,Sequence,gcPBM binding intensity (ln)
1,AATATTTATAAATTTACACACACACCCGTGAACATA [CACACA_site1910],6.94
2,TTATCATTTTAAATCACACACATATATAAATATGTA [CACACA_site7359],6.95
3,ATACGATTGCAGTCAAAAAGGAAAATATAAAAAAAG [XGTACX_negctrl_site124],7.29
4,ATATATATGTATGTATATATATATATATATGTTTGA [CACACA_negctrl_site107],7.53
5,TTAATAACGTAATGTAAATGTTTCATACCCTTTTTT [CACACA_negctrl_site988],6.77
6,TTTTTTTTTCTGTATACACACAAAATTTATTTTTTA [CACACA_site2873],6.77
7,ATAAAATAAAAACATGCACACTTTATTTTTTTTAAG [CACACA_site5545],9.31
8,AAAGAAGGGGGGGGAAAAAAAAATAAAAGAGGAAAA [XGTACX_negctrl_site92],8.91
9,TGGGGTATTAAAAAAACACACAAAAAAAATATAAAG [CACACA_site1915],7.1
10,AAAATGTATATTGGCGCATGTAAACAAATACTATAC [TGCATGCA_site385],7.13
11,TCAAAATGTGACATAAAAGAAAAAAAAAAAAAAAAA [CACACA_negctrl_site1092],6.94
12,GATAATAATAAGTGTACACATATATTTAGAAGAGTA [CACACA_site4245],7.25
13,AATATAAAAAATAATACACACACATGGCGACAAAAT [CACACA_site8765],7.28
14,ATGTAAGTAATTATCTGTACACATAATATATATATA [XGTACX_site2618],8.94
15,CACATAAATAATTAAACACACATTGTTCTAGACAAT [CACACA_site2378],6.81
16,TTTGAGTTACTATTCACACAAAATGGATAAATTAAT [CACACA_site5626],7.07
17,TACATATTACTATTCAGTACATATTTTTTTTTCATT [XGTACX_site7468],6.99
18,AGGATAAAAGTTATGGTGCATTAACCTATTTAAATA,10.2
19,TATATAGGTATATATACACACAACGGTTATAAATAT [CACACA_site4759],7.06
20,TATAAAGACACGAAAACACACATATGTAAATATATA [CACACA_site8056],7.27
21,TAGTTTTGAAAACAAACACACAAAAAAAAAAAAAAA [CACACA_site1692],6.88
22,AATTTTATTACTTTTACACACCTATATATCATTCAT [CACACA_site7525],7.05

row,Sequence,gcPBM binding intensity (ln)
1,ACCTTAAATAATACATGTACAAAAAAATTTATAATA [XGTACX_site1043],7.67
2,AAGAATAAGGAAAAATGTACAGAATGCACATATGAA [XGTACX_site4705],7.33
3,TAGGGATTATACCACACACACATACACATAAATATA [CACACA_site3178],7.08
4,AAAAAAAATACAAAAAGTACAAAAAATACAAAAAAA [XGTACX_site8844],6.79
5,TTCTTTTTTTAAAGAAGTACTATATTTTAAATTATA [XGTACX_site5059],6.67
6,TTTAAAATAAATTAATAGAACAAAAATAAAATGATT [GTGCAC_negctrl_site375],7.03
7,ATGTATATATATATATGTACATATTTTTTATATGTA [XGTACX_site441],7.11
8,AATAATAAAAAAAGTGCACACACATAATATATATAT [CACACA_site9100],10.6
9,TATAAAAAAATAAAAGGAATATACTTGCAAAGGGTA [CACACA_negctrl_site1438],7.18
10,AACAATATATTGATATTATTTTAAGTGATTATATAT [XGTACX_negctrl_site205],6.88
11,TTTCAAATGATTAAGTGTACATGTTTGCTTGCTCTT [XGTACX_site4697],6.96
12,TTTTTTTTTGTTATGTTGCACTTTGCCATATTATTA [GTGCAC_site9844],7.93
13,ATATTAAAATTTTAATGTACATGCGTATGTAGGAAT [XGTACX_site1673],7.39
14,AACATATATTTTTAATGTACAAGGTTGTAAAGAACT [XGTACX_site1405],7.17
15,TATATTATATTTTTATGTACTTATTTATTTTGTTTC [XGTACX_site6145],6.97
16,ATTGTATTAAAATGCACACATATCAAGAGGAATTTT [CACACA_site283],7.19
17,ATGTATATATTCAATTGTACATGTTATATTTACACA [XGTACX_site1125],6.94
18,AAAGAATAATTAAATACACACATATTGCAGTAAAAA [CACACA_site7201],6.99
19,TGTAAAATATAAAAAGTGCATTTCTTTTAATATGAT,8.94
20,CAATTGATATTGAAATGTACTTTTTAGATGAACCTT [XGTACX_site2354],6.7
21,TTAAATAATGCCACCAGTACCCACTGAAAGAAAAAA [XGTACX_site5013],7.09
22,TATATTAAAATTTACTGTACTTTTTTTATTTTAAAA [XGTACX_site4077],7.2
